Measurements published in the antibiotic and cytotoxicity screens of Wong et al. (2023).
The list shows a part of the results.

Assays:
[1] = tested on: HSkMC (human skeletal muscle cells); experiment: cytotoxicity call (relative viability < 0.9); settings: 10 µM
[2] = tested on: HepG2; experiment: cytotoxicity call (relative viability < 0.9); settings: 10 µM
[3] = tested on: S. aureus RN4220; experiment: growth inhibition call (relative growth <= 0.2); settings: 50 µM

Compound | cytotoxicity call [1] | cytotoxicity call [2] | growth inhibition call [3]
CCn1c(N)nc2c1c(=O)[nH]c(=O)n2C | inactive | inactive | inactive
CCC1(O)C(=O)OCc2c1cc1n(c2=O)Cc2cc3c(CN(C)C)c(O)ccc3nc2-1.Cl (stereo not given) | inactive | active | inactive
Cc1noc(C)c1NC(=O)Nc1ccc2c(c1)CC(=O)N([C@H](C)CO)C[C@@H](C)[C@H](CN(C)Cc1ccc(-c3ccccc3)cc1)O2 | inactive | inactive | inactive
O=C(C[C@@H]1CC[C@H](NS(=O)(=O)c2ccccc2F)[C@H](CO)O1)NCCCN1CCOCC1 | inactive | inactive | inactive
COc1ccc(NC(=O)N(C)C[C@@H]2Oc3ccc(NC(=O)CCN4CCOCC4)cc3CC(=O)N([C@H](C)CO)C[C@H]2C)cc1 | inactive | inactive | inactive
CC(C)NC(=O)Nc1ccc2c(c1)C(=O)N([C@H](C)CO)C[C@@H](C)[C@@H](CN(C)S(=O)(=O)c1cn(C)cn1)O2 | inactive | inactive | inactive
C[C@@H]1CN([C@@H](C)CO)C(=O)c2cc(NS(=O)(=O)c3ccc(Cl)cc3)ccc2O[C@@H](C)CCCCO[C@@H]1CN(C)S(=O)(=O)c1cccs1 | inactive | inactive | inactive
COc1ccc2c3c(n(c2c1)C)[C@@H](CO)N(C[C@]13CCN(CC1)C(=O)c1ccncc1)C(=O)C1CCC1 | inactive | inactive | inactive
C[C@H]1CN([C@@H](C)CO)C(=O)c2cc(NS(=O)(=O)c3ccc(Cl)cc3)ccc2O[C@H]1CN(C)Cc1ccc(-c2ccccc2)cc1 | inactive | inactive | inactive
COc1ccc(S(=O)(=O)N(C)C[C@@H]2OCc3cnnn3CCCC(=O)N([C@@H](C)CO)C[C@H]2C)cc1 | inactive | inactive | inactive
